Results: PubChem BioAssay AID1865 (National Center for Advancing Translational Sciences (NCATS), 2009)
Screen size: about 280,000 compounds; about 540 (0.19%) were called active. This list was built around the results that the source calls inconclusive (neither active nor inactive); the mix of calls is not that of the screen. The call rests on the fitted dose curve; in most records, active means well fitted activation curve with a large enough effect; inconclusive means small, poorly fitted or top-dose-only effect; inactive means flat fitted curve, though single readings scatter. Where the call is inconclusive, the potency comes from a doubtful curve fit.

Assay: Quantitative High-Throughput Screen for Regulators of Epigenetic Control; further: nearly all actives have a fitted effect of over 60% in size
Details: murine LDR cells, GFP reporter derepression, 30 h; series mostly up to 53.9 µM
Procedure, shortened: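 Murine LDR cells carrying a silenced, genomically integrated CMV-driven GFP reporter were exposed to compound for 30 hours at 37 C. After PBS washes, GFP-positive cells (20–120 um objects) were counted by laser-scanning microplate cytometry.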
Potency means the concentration at half of the fitted maximal effect; tags describe the fitted curve by direction and shape.

SMILES	Potency
O=c1[nH]c2ccccc2nc1/C=C/c1ccc(F)cc1	inconclusive: 35.5 µM [activator, single point]
O=C(Cn1c(=O)n(Cc2ccco2)c(=O)c2oc3ccccc3c21)Nc1ccc(F)c(Cl)c1	inconclusive: 35.5 µM [activator, single point]
Cc1cc(C)n(CC(O)COCc2ccccc2)n1 (configuration not stated)	active: 10 µM
COc1ccc(-n2nc3cc(C)c(N)c(Br)c3n2)cc1	inconclusive: 10 µM [activator, partial curve, poor fit]
CCOC(=O)c1c(CC(C)C)csc1/N=C/C1=C(O)CCCC1=O	inconclusive: 12.6 µM [activator, partial curve]
CCCCC/C=C\C/C=C\CCCCCCCC(=O)NCCc1ccc(O)c(O)c1	inconclusive: 35.5 µM [activator, single point]
N#CCc1nc2ccc(S(=O)(=O)N3CCOCC3)cc2s1	inactive
Cc1ccc(S(=O)(=O)c2nnn3c2nc(NCc2ccc4c(c2)OCO4)c2sccc23)cc1	inconclusive: 17.8 µM [activator, single point]
N#C/C(=C\c1ccc(-c2ccccc2)cc1)c1nc(-c2ccco2)cs1	inconclusive: 28.2 µM [activator, single point]
Cc1cccc(C)c1NC(=O)COC(=O)c1cccc2c1C(=O)c1ccccc1C2=O	inconclusive: 14.1 µM [activator, single point]
Cc1cc(C2(c3ccc(O)c(C)c3)C(=O)Nc3ccccc32)ccc1O	inconclusive: 28.2 µM [activator, single point]
c1coc(-c2nc3nc4ccccc4nc3n2CC2CCCO2)c1 (configuration not stated)	inactive
C/C=C/c1ccc(OCC(=O)OCC(=O)NC2CC2)c(OC)c1	inconclusive: 3.98 µM [activator, partial curve]
O=C1N/C(=C\c2ccc(O)cc2)C(O)=C1C=NCc1ccccc1	inconclusive: 12.6 µM [activator, partial curve]
CSC1=NC(C)(C)C=C(/C=C/c2c(Cl)cccc2Cl)N1	inconclusive: 35.5 µM [activator, single point]
COc1ccc2c(c1)c(CC(=O)Nc1cccc(F)c1C)c(C)n2C(=O)c1ccc(Cl)cc1	inconclusive: 17.8 µM [activator, single point]
O=C1CC(C(F)(F)C(F)(F)C(F)(F)C(F)F)=Nc2ccccc2N1	inactive
COCc1nc2ccccc2n1Cc1ccc(Br)cc1	inactive
O=c1[nH]cnc2nc(-c3ccccc3)c(-c3ccccc3)nc12	inactive
CCn1cc(C(=O)NCCc2ccc(OC)c(OC)c2)c(=O)c2cc(S(=O)(=O)N3CCOCC3)ccc21	inactive
COc1cc(/C=C/c2nc3ccccc3s2)cc(OC)c1O	inactive
O=C(N/N=C/c1ccc(-c2ccc([N+](=O)[O-])cc2)o1)c1cccnc1	inconclusive: 31.6 µM [activator, single point]
COc1cc2c3nnc(-c4ccccc4)c-3cn(Cc3ccccc3F)c2cc1OC	inconclusive: 5.01 µM [activator, single point]
COc1ccc(Cl)cc1NC(=O)CSc1nc2c([nH]c3ccccc32)c(=O)n1-c1ccccc1	inconclusive: 25.1 µM [activator, single point]

SMILES	Potency
Cc1ccc(C(=O)NNC2=Nc3cccc4cccc2c34)cc1	inconclusive: 35.5 µM [activator, single point]
COC(=O)C1(O)CC(C(C)C)=NN1C(=O)c1ccccc1 (configuration not stated)	inconclusive: 31.6 µM [activator, single point]
C=CCn1c(NCc2ccccc2)nc2ccccc21	inactive
Clc1ccc(-c2nnc3sc(-c4ccc(Br)o4)nn23)cc1	inactive
CCOC(=O)c1[nH]c2ccc(Cl)cc2c1NC(=O)/C=C/c1ccc2c(c1)OCO2	inconclusive: 7.08 µM [activator, partial curve, poor fit]
CC(C)NC(=O)c1cc2n(n1)C(C(F)(F)F)CC(c1ccco1)N2 (configuration not stated)	inconclusive: 14.1 µM [activator, single point]
Cc1ccc2c(=O)c3ccccc3n(CCCN)c2c1C	inconclusive: 5.62 µM [activator, single point]
O=C(Oc1cccc2cccnc12)c1ccco1	inconclusive: 5.62 µM [activator, single point]
Cc1sc2ncnc(Sc3ccccc3C(=O)Nc3ccc(Br)cc3)c2c1C	inconclusive: 35.5 µM [activator, single point]
CS(=O)(=O)Nc1ccc(N2CCN(c3ccc(C(F)(F)F)cn3)CC2)nc1	inactive
O=C(Oc1ccccc1)c1cccc2cccnc12	inconclusive: 35.5 µM [activator, single point]
Cc1ccc(NC(=O)CSc2ccc(C(N)=O)cc2[N+](=O)[O-])cc1C	inactive
CCN(CC)c1ccc(NS(=O)(=O)c2cc(-c3onc(C)c3C)ccc2OC)c(C)c1	inactive
Cc1oc(-c2ccc(Cl)cc2)nc1CS(=O)CC(=O)NCc1cccs1 (configuration not stated)	inconclusive: 20 µM [activator, single point]
CC(=O)N1N=C(c2ccco2)CC1c1cccs1 (configuration not stated)	inconclusive: 17.8 µM [activator, single point]
O=C1C(Cl)=C(Nc2ccc(O)cc2)C(=O)c2ccccc21	inconclusive: 22.4 µM [activator, single point]
CCCN1C(=O)S/C(=C\c2ccc(N3CCOCC3)o2)C1=O	active: 11.2 µM
Cc1ccc(CCNC(=O)c2ccc(Nc3nc4ccccc4n4nnnc34)cc2)cc1	inconclusive: 15.8 µM [activator, single point]
COc1cc(NC(=O)C2CCN(S(=O)(=O)c3c(C)noc3/C=C/c3ccccc3F)CC2)cc(OC)c1OC	inconclusive: 15.8 µM [activator, single point]
FC(F)(F)c1cccc(Nc2c3c(nc4ccc(Cl)cc24)CCC3)c1	inactive
COC(=O)c1ccccc1NC(=O)NCc1ccccn1	inactive
COc1cccc(CN2CCN(Cc3cc(OC)c(OC)cc3[N+](=O)[O-])CC2)c1	inactive
COc1cc(NC(=O)CSc2nc3ccccc3cc2Cc2ccccc2)cc(OC)c1	inactive
CCOC(=O)C(CC)Sc1nc2c(c(=O)[nH]c(=O)n2C)n1C/C=C(/C)Cl (configuration not stated)	inactive

SMILES	Potency
Cc1ccc(-c2cn(-c3ccccc3)c3[n+]2CCCS3)cc1	inconclusive: 6.31 µM [activator, single point]
COC(=O)c1cc(S(=O)(=O)NCC2CCN(Cc3cccc(F)c3)CC2)cn1C	inactive
COc1ccc(CCn2c(-c3ccco3)nc3nc4ccccc4nc32)cc1	inactive
Oc1c(CN2CCOCC2)cc(COCc2ccccc2)c2cccnc12	active: 3.98 µM
Cc1ccc(S(=O)(=O)n2nc(-c3ccco3)nc2N)cc1	inconclusive: 35.5 µM [activator, single point]
COc1ccc(S(=O)(=O)N2CCOCC2)cc1NC(=O)Cc1c(Cl)cccc1Cl	inconclusive: 12.6 µM [activator, single point]
Cc1ccc(NC(=O)Cn2c(=O)n(Cc3nc(-c4ccccc4)no3)c(=O)c3ccccc32)c(C)c1	inconclusive: 31.6 µM [activator, single point]
CC1CCCN(Cc2nc3c(c(=O)n(C)c(=O)n3C)n2CC(=O)c2ccccc2)C1 (configuration not stated)	inconclusive: 12.6 µM [activator, single point]
C=CCN(CC=C)C(=S)NC(=O)Cc1cccc2ccccc12	inconclusive: 31.6 µM [activator, single point]
Cc1ccc2nc(COc3ccccc3NC(=O)Nc3ccc(F)c(Cl)c3)cc(=O)n2c1	inconclusive: 35.5 µM [activator, single point]
Cc1cccc(NC(=O)CSc2cn(CC(=O)N3CCOCC3)c3ccccc23)c1C	inactive
CCCN(Cc1cc2ccccc2[nH]c1=O)C(=O)c1cccc([N+](=O)[O-])c1	inconclusive: 15.8 µM [activator, single point]
Cc1ccc(/C=C/c2nc3ccccc3s2)s1	inactive
COc1cccc(C(=O)Nc2nc3c(s2)CN(C)CC3)c1	inactive
COC(=O)c1ccc(COn2c(=O)c(C)[n+]([O-])c3ccccc32)cc1	inconclusive: 35.5 µM [activator, single point]
CC(C)C(=O)Nc1nnc(S(=O)(=O)N2CCc3ccccc32)s1	inconclusive: 28.2 µM [activator, single point]
N#CC(C#N)=C1C=C2C=C(N3CCCCCC3)CCC2CC1 (configuration not stated)	inconclusive: 0.126 µM [activator, full curve, poor fit]
CSc1nc(N)n(-c2cc(C(F)(F)F)ccn2)n1	inconclusive: 35.5 µM [activator, single point]
O=C(/C=C\Nc1ccc2c(c1)OCO2)c1ccc2c(c1)OCO2	inconclusive: 25.1 µM [activator, single point]
CCOc1ccc(/C=C2\SC(=S)N(N3C(=O)C4CC4C3=O)C2=O)cc1 (configuration not stated)	inactive
O=C(Nc1nc(-c2ccccn2)cs1)c1ncc(Cl)c(Cl)c1Cl	inactive
CC(C)c1ccc(NC(=O)CN(Cc2ccccc2)S(C)(=O)=O)cc1	inconclusive: 3.55 µM [activator, single point]
CSc1c(SCc2ccccc2)cnn(-c2ccccc2)c1=O	inactive
Cc1nc2c(c(=O)n1Cc1ccco1)c1nc3ccccc3nc1n2Cc1ccccc1	inconclusive: 31.6 µM [activator, single point]
